# Measured values reported in publication PMC4336329 (PLoS ONE, 2015).
# Among all 310,000 compounds or so, about 2,200 (0.71%) showed an effect of 50% or more. The effect is printed as a negative number. This is one part of the list.
# Biological target: human ether-à-go-go-related gene (hERG) potassium channel (human, UniProt Q12809)
# Experiment: primary screen, population patch clamp on CHO cells stably expressing hERG
# Chain of human ether-à-go-go-related gene (hERG) potassium channel (Q12809 whole entry, looked up): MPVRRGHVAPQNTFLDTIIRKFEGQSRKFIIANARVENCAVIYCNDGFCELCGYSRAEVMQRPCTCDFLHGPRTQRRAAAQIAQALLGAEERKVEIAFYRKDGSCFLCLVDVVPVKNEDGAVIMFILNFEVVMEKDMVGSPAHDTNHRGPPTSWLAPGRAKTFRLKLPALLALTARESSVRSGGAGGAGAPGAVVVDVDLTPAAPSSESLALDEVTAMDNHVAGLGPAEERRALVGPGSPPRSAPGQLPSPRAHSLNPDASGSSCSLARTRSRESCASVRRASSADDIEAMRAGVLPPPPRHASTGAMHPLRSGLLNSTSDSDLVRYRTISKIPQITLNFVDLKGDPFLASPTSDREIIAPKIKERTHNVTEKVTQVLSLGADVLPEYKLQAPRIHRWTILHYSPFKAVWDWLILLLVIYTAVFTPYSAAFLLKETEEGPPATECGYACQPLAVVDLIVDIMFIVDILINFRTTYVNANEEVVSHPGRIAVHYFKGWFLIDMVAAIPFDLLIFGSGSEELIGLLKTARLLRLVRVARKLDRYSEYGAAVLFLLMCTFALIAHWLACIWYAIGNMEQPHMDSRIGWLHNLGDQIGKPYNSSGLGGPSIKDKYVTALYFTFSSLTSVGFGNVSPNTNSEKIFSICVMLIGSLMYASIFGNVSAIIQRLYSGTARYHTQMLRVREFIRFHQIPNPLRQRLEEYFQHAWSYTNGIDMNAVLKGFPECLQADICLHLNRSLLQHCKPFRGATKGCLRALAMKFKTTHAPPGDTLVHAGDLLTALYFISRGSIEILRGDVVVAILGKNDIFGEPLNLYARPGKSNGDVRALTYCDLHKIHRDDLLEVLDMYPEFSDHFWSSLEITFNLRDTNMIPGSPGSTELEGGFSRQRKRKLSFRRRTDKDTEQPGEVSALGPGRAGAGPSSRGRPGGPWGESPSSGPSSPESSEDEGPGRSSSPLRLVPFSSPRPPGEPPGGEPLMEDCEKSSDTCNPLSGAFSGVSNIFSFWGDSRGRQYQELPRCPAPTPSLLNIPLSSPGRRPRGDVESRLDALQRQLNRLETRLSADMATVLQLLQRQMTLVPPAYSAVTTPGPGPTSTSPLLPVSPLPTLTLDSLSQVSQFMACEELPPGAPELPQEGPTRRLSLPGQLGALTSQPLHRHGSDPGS
row,Structure (SMILES),"hERG current change (%, negative = inhibition) at 1uM"
1,O=C(NCCCc1ccccc1)C(=O)NCC1OCCN1S(=O)(=O)c1ccccc1 (stereo not drawn),5.35%
2,Cc1nc2ccc(NC(=O)[C@@H](NC(=O)c3c(F)cccc3F)C(C)C)cc2s1,6.58%
3,CC(C)(C)C(=O)c1no[n+]([O-])c1/C(=N/O)C(C)(C)C,-0.746%
4,Cc1ccc(C(=O)OCC(=O)NCc2ccccc2)cc1S(=O)(=O)N1CCCCC1,-6.92%
5,CC(C)(C)OC(=O)NCCCC(CCCNC(=O)OC(C)(C)C)C(=O)O,3.84%
6,Cc1ccccc1N1CCN(C2CCCN(C(=O)c3ccccn3)C2)CC1 (stereo not drawn),7.88%
7,CC(=O)Oc1ccc(OC(C)=O)c(SCCCCC[NH+]2CCOCC2)c1.[Cl-],1.19%
8,CSc1ccccc1NC(=O)C1CCCN(S(C)(=O)=O)C1 (stereo not drawn),17.6%
9,CN1CCN(S(=O)(=O)c2cccc(S(=O)(=O)c3ccc(Cl)cc3)c2)CC1,-2.89%
10,NC(=O)C1CCN(C(=O)C2CCN(S(=O)(=O)c3ccccc3)CC2)CC1,8.34%
11,COC(=O)CCNCCSc1nnc(-c2ccco2)n1Cc1ccccc1.O=C(O)C(=O)O,-32.1%
12,Cc1cc(C)cc(NC(=O)C(OC(=O)c2ccc([N+](=O)[O-])o2)c2ccccc2)c1 (stereo not drawn),11%
13,COC(=O)CSc1nnc(Cc2ccccc2)n1-c1ccc(C)cc1,-0.227%
14,O=C(C1=C(O)C(=O)N(CC2CCCO2)C1c1ccccc1[N+](=O)[O-])c1ccco1 (stereo not drawn),10%
15,CCO[C@H]1OC(C(=O)N2CCN(Cc3ccc4c(c3)OCO4)CC2)=C[C@@H](c2csc3ccccc23)[C@@H]1CCCO,17%
16,CC(Cc1cccs1)NC(=O)Nc1ccc(Cl)c(Cl)c1 (stereo not drawn),10%
17,CC(=O)C1=C(C)NC(SCC(=O)c2ccc(F)cc2)=C(C#N)C1CC(C)C (stereo not drawn),11.9%
18,CC(C)(O)C(=O)NN(Cc1ccccc1)c1ccccc1,13.5%
19,CN(CC(=O)Nc1cccc(F)c1)CC(=O)Nc1cccc(S(=O)(=O)N2CCCCC2)c1,3.38%
20,CCn1c(SC/C=C/c2ccccc2)nnc1-c1cnccn1,5.49%
21,O=S(=O)(Nc1nc(-c2ccccc2)cs1)c1cccc(C(F)(F)F)c1,10.5%
22,CCOC(=O)CSc1nc2ccc(NC(C)=O)cc2s1,2.18%

row,Structure (SMILES),"hERG current change (%, negative = inhibition) at 1uM"
1,CCCOc1cccc(OCC(=O)Nc2nc3ccccc3[nH]2)c1,13.9%
2,COc1cc(C(=O)OCC(=O)N2CCN(C(C)=O)CC2)ccc1OCC(C)C,12.6%
3,O=C(c1cc(COc2c(F)cccc2F)on1)N1CCCCCC1,7%
4,CC(=O)Nc1ccc(NC(=O)C(C)Sc2nc3ccccc3c(=O)n2CC2CCCO2)cc1 (stereo not drawn),14.8%
5,Cc1ccc(N2C(=O)NC(C(F)(F)F)(C(F)(F)F)C3=C2CC(C)(C)CC3=O)cc1,8.93%
6,N#C/C(=C\c1ccc(-c2ccc(Br)cc2)o1)C(=O)NCCc1c[nH]c2ccccc12,19.4%
7,CC(C)=CC(=O)Nc1ccc(S(=O)(=O)Nc2ccccn2)cc1,0.672%
8,O=C(CSc1nnnn1C1CCCCC1)N1CCCC1,6.03%
9,COc1ccc(-n2nnc3c(=O)n(CC(=O)Nc4cc(C)on4)cnc32)cc1,16.2%
10,CCOC(=O)/C(C#N)=C1/SC(CCO)C(=O)N1c1ccccc1 (stereo not drawn),18.1%
11,CCc1ccccc1NC1=NCC(=O)N1Cc1ccc2c(c1)OCO2,10.1%
12,Cl.Nc1ccc2c(c1)oc1ccccc12,20.1%
13,O=C(CN(C1CCCCC1)S(=O)(=O)c1ccc(F)cc1)NCCCO,10.7%
14,Nc1ccc(-c2cc(-c3ccc(N)cc3)nc(-c3ccccc3)n2)cc1,14.3%
15,O=C(COC(=O)CCc1c[nH]c2ccccc12)Nc1ccccc1C(F)(F)F,-4.25%
16,CCOC(=O)N1CCN(C(=O)CSc2nnc3[nH]c(=O)c(C)c(C)n23)CC1,2.6%
17,O=C(Cn1nnc(-c2ccccc2)n1)Nc1cccc(S(=O)(=O)N2CCOCC2)c1,1.08%
18,CCOC(=O)c1ccc(NC(=O)CSc2nc3cccnc3n2C)cc1,12.3%
19,CCOC(=O)C1CCN(C(=O)CCc2nc3sc4c(c3c(=O)[nH]2)CCCC4)CC1,4.72%
20,C#CCN(Cc1ccco1)C(=O)c1ccc(OC2CCN(Cc3ccccn3)CC2)cc1,-25.3%
21,CC1CCN(CCCNC(=O)CN2CCN(Cc3ccc(Cl)cc3)C2=O)CC1,-25.7%
22,Cc1cc(-c2ccc(C)c(S(=O)(=O)NCCc3ccco3)c2)on1,12.2%

row,Structure (SMILES),"hERG current change (%, negative = inhibition) at 1uM"
1,COc1cc(C(=O)Nc2ccc3c(c2)OCCO3)ccc1-n1cnnn1,14.6%
2,COc1ccc(CNC(=O)C/C(C)=N/NC(=O)c2ccc([N+](=O)[O-])cc2Cl)cc1,9.93%
3,CCC1(C(=O)OC)NC(c2ccco2)C2C(=O)N(c3ccc(C)cc3)C(=O)C21 (stereo not drawn),12.7%
4,O=C(O)CCNC(=O)/C(=C/C=C/c1ccccc1)NC(=O)c1ccccc1,9.54%
5,C=CCc1cccc2ccc(=O)oc12,8.26%
6,Cc1nc2ccc(NC(=O)c3cc([N+](=O)[O-])cc([N+](=O)[O-])c3Cl)cc2s1,7.05%
7,COc1ccc(/C=N/NC(=O)c2cc(-c3cccc(C)c3)nc3ccccc23)cc1O,15.7%
8,Cc1ccccc1NC(=O)Cc1nc(COC(=O)c2ccc(Cl)c(S(N)(=O)=O)c2)cs1,-33.3%
9,Cc1ccc(S(=O)(=O)c2nc(S(C)(=O)=O)sc2N2CC(C)OC(C)C2)cc1 (stereo not drawn),13.1%
10,COC(=O)c1cc(C(=O)Cc2ccccc2)c[nH]1,-0.651%
11,CC1CCCCN1S(=O)(=O)Cc1ccccc1Cl (stereo not drawn),13.2%
12,N#CCSc1nnc(COc2ccccc2)n1-c1ccccc1,-2.86%
13,Cc1cc(CN2CCCC(C(=O)Nc3cccc(-n4cccn4)c3)C2)cc(C)c1O (stereo not drawn),5.56%
14,O=C(Nc1ccc(N2CCCCC2)cc1)c1ccccc1,14.9%
15,Nc1nc(-c2cc(O)ccc2[N+](=O)[O-])cc(-c2ccccc2)c1[N+](=O)[O-],5.18%
16,O=C(COc1ncnc2cc([N+](=O)[O-])ccc12)N(CCc1ccccc1)Cc1ccccc1,18.9%
17,CCOC(=O)c1sc(-c2ccccc2)cc1NC(=O)Nc1ccccc1,14.8%
18,CC(C)=CCN1CCN(Cc2cccn2-c2ncccn2)CC1CCO (stereo not drawn),-3.9%
19,COc1ccc(NC(=O)c2csc(C)c2)cc1OC,8.94%
20,CC(C)S(=O)(=O)c1csc(NC(=O)Nc2cccc([N+](=O)[O-])c2)c1Cl,-17%
21,CCOCCCNC(=S)Nc1ccc(S(N)(=O)=O)cc1,1.01%
22,CCCC(=O)Nc1ccc(Cl)c(NC(=O)C(C)(C)C)c1,-1.36%

row,Structure (SMILES),"hERG current change (%, negative = inhibition) at 1uM"
1,CCOC(=O)C1CCN(S(=O)(=O)c2cccc(-c3cn4cccc(C)c4n3)c2)CC1,5.94%
2,CC(O)c1nc2ccccc2n1C1CCCCC1 (stereo not drawn),4.01%
3,COc1cc(/C=N/NC(=O)c2ccc3c(c2)OCO3)ccc1O,6.85%
4,O=S(=O)(c1ccc(NC(=S)NCCc2ccccc2)cc1)N1CCOCC1,3.71%
5,CCCc1nnc(NC(=O)CCC(=O)N2CCCCC2)s1,5.09%
6,COCCn1c(SCC(=O)NC2CCCC2)nnc1C(C)C,12.2%
7,Cc1ccc2cc(CN(CC3CCCO3)C(=S)NCc3ccco3)c(=O)[nH]c2c1 (stereo not drawn),15.3%
8,CCOC(=O)c1ccc(CNC(=O)CCC(=O)O)cc1,10.7%
9,Nc1c(C(=O)O)cnn1-c1ccc([N+](=O)[O-])cc1,21.6%
10,Cc1ccccc1NC(=O)NNC(=O)COc1ccc2ccccc2c1,3.61%
11,Cc1ccc(-n2ncc3c2CCCC3NC(=O)CCc2cnccn2)cc1C (stereo not drawn),2.17%
12,Cc1ccccc1C(=O)NC(=S)NCc1cccnc1,15.1%
13,Cc1cnc(NC(=O)c2cccc(S(=O)(=O)N3CC(C)OC(C)C3)c2)s1 (stereo not drawn),6.45%
14,CN(CCO)c1nc(N)c2c(N)nc3c(c2c1C#N)CC(=O)N3Cc1cccs1,8.52%
15,CNc1nc(Cl)c(SC)c(NC2CCCCC2)n1,12.4%
16,Cc1sc2nc(COC(=O)c3ccc(N4CCCC4)c([N+](=O)[O-])c3)[nH]c(=O)c2c1C,6.16%
17,CCOc1ccc2c(c1)c1nnc(SCC3CCCO3)nc1n2C (stereo not drawn),8.82%
18,O=C(CCS(=O)(=O)c1ccccc1F)Nc1ccc(N2CCN(Cc3ccccc3)CC2)cc1,22.8%
19,Cn1c(SCC(=O)Nc2ccc(N3CCOCC3)cc2)nnc1C1CC1,9.06%
20,CC(C)(C)OC(=O)N1CCCC1C(=O)O (stereo not drawn),19.8%
21,CCn1ccnc1CN(C)Cc1nc(-c2cccc(Cl)c2)no1,-7.95%
